In the supplement of paper PMC10723795:
Structures can show the parent of a compound that is named as a salt. This is one part of the list.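 Rule for the calls: active = more than 2 SD below the DMSO mean: under 0.85 at 10 µM or 0.885 at 1 µM; inactive = the rest.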 Single values are uncertain, as repeats are few or missing.

Test system: RPE1
Test: nucleolar normality score relative to DMSO (fraction of DMSO control); RPE1 is a non-cancer human cell line; higher = more normal nucleoli (less nucleolar stress)
Settings: 24 h
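Note: fixed cells immunolabelled for nucleolin and UBF, 40 image fields per well in 384-well plates, per-cell score = nucleolin nucleolar/nucleoplasm intensity ratio divided by the matching UBF ratio.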

| SMILES | nucleolar normality score (1 µM) | nucleolar normality score (10 µM) |
| --- | --- | --- |
| CC(C)=CCC[C@]1(C)C=Cc2c(O)c3c(c(CC=C(C)C)c2O1)O[C@]12C(=C[C@@H]4C[C@H]1C(C)(C)O[C@@]2(C/C=C(/C)C(=O)O)C4=O)C3=O [Gambogic Acid] | inactive: 1.02 | inactive: 1.07 |
| CCNC(=O)C[C@@H]1N=C(c2ccc(Cl)cc2)c2cc(OC)ccc2-n2c(C)nnc21 | inactive: 0.962 | inactive: 1.06 |
| C[C@H]1CCC/C=C/[C@@H]2C[C@H](O)C[C@H]2[C@H](O)/C=C/C(=O)O1 [Brefeldin A] | active: 0.482 | active: 0.41 |
| COc1cc(-n2c(=S)[nH]c3ccccc3c2=O)c(Cl)cc1Cl [Mdivi-1] | inactive: 0.982 | inactive: 1.04 |
| O=C(O)CCCc1ccc(N(CCCl)CCCl)cc1 [Chloroambucil] | inactive: 1.06 | inactive: 1.05 |
| COc1cc([C@@H]2c3cc4c(cc3[C@H](O)[C@H]3COC(=O)[C@@H]23)OCO4)cc(OC)c1OC [Picropodophyllin (PPP)] | inactive: 0.968 | inactive: 0.913 |
| CC(=O)Oc1ccc(C=Cc2cc(OC(C)=O)cc(OC(C)=O)c2)cc1 [Acetyl Resveratrol] | inactive: 1.03 | inactive: 0.998 |
| COCC1(CO)C(=O)C2CCN1CC2 (centres undefined) | inactive: 0.9 | inactive: 0.953 |
| C/C(=C\c1csc(C)n1)[C@@H]1C[C@@H]2O[C@]2(C)CCC[C@H](C)[C@H](O)[C@@H](C)C(=O)C(C)(C)[C@@H](O)CC(=O)O1 [Patupilone (EPO906, Epothilone B)] | active: 0.744 | active: 0.776 |
| O=S(=O)(CC1CS1)c1ccc(Oc2ccccc2)cc1 (centres undefined) | inactive: 0.899 | inactive: 0.962 |
| CC(=O)OC(C)(C)/C=C/C(=O)[C@](C)(O)[C@H]1[C@H](O)C[C@@]2(C)[C@@H]3CC=C4[C@H](C[C@H](O)C(=O)C4(C)C)[C@]3(C)C(=O)C[C@]12C [Cucurbitacin B] | active: 0.486 | active: 0.478 |
| CC(=O)OC1C(=O)C2(C)C(O)CC3OCC3(OC(C)=O)C2C(OC(=O)c2ccccc2)C2(O)CC(O)C(C)=C1C2(C)C (centres undefined) [Baccatin Ⅲ] | inactive: 1.05 | inactive: 0.889 |
| COc1ccc(/C=C/c2cc(OC)cc(OC)c2)cc1 [3,4',5-Trimethoxy-trans-stilbene] | inactive: 1.05 | inactive: 0.948 |
| N[C@@H](Cc1ccc(N(CCCl)CCCl)cc1)C(=O)O [Melphalan] | inactive: 0.958 | inactive: 0.952 |
| CC[C@@H](C(=O)[C@@H](C)[C@@H](O)[C@H](C)[C@@H]1O[C@@H]([C@@H](CC)C(=O)O)CC[C@@H]1C)[C@H]1O[C@]2(C=C[C@@H](O)[C@]3(CC[C@@](C)([C@H]4CC[C@](O)(CC)[C@H](C)O4)O3)O2)[C@H](C)C[C@@H]1C [Salinomycin (from Streptomyces albus)] | inactive: 1.02 | inactive: 0.898 |
| NC(=O)c1cc(N2CC2)c([N+](=O)[O-])cc1[N+](=O)[O-] | inactive: 1.02 | inactive: 0.989 |

| SMILES | nucleolar normality score (1 µM) | nucleolar normality score (10 µM) |
| --- | --- | --- |
| Cn1cc(C2=C(c3cn(C4CCN(Cc5ccccn5)CC4)c4ccccc34)C(=O)NC2=O)c2ccccc21 | inactive: 0.955 | inactive: 0.993 |
| C[C@@H]1CC[C@@]2(OC1)O[C@H]1C[C@H]3[C@@H]4CC=C5C[C@@H](O[C@@H]6O[C@H](CO)[C@@H](O[C@@H]7O[C@@H](C)[C@H](O)[C@@H](O)[C@H]7O)[C@H](O)[C@H]6O[C@@H]6O[C@@H](C)[C@H](O)[C@@H](O)[C@H]6O)CC[C@]5(C)[C@H]4CC[C@]3(C)[C@H]1[C@@H]2C [Dioscin] | inactive: 1.1 | active: 0.24 |
| O=C(O)C(=O)CBr [Bromopyruvic acid] | inactive: 1.05 | inactive: 1.04 |
| COC(=O)[C@@H](N)CCCNC(=N)N[N+](=O)[O-] | inactive: 0.995 | inactive: 1.06 |
| CC(C)(C)c1cc(C=C(C#N)C#N)cc(Br)c1O | inactive: 0.99 | inactive: 1.08 |
| CC(C)[C@]12O[C@H]1[C@@H]1O[C@]13[C@]1(O[C@H]1C[C@H]1C4=C(CC[C@@]13C)C(=O)OC4)[C@@H]2O [Triptolide (PG490)] | active: 0.854 | inactive: 0.915 |
| O=C(c1ccccc1O)c1[nH]c(Cl)c(Cl)c1-n1c(C(=O)c2ccccc2O)cc(Cl)c1Cl [Marinopyrrole A (Maritoclax)] | inactive: 0.973 | inactive: 0.984 |
| Cn1c(CCCC(=O)O)nc2cc(N(CCCl)CCCl)ccc21 [Bendamustine HCl] | inactive: 1.03 | inactive: 1.09 |
| O=[N+]([O-])C=Cc1ccc2c(c1)OCO2 [MNS (3,4-Methylenedioxy-β-nitrostyrene, MDBN)] | inactive: 1.07 | inactive: 0.921 |
| COc1ccc(N(C(=O)Oc2c(C)cccc2C)c2ccnc(Nc3ccc(N4CCN(C)CC4)cc3)n2)c(OC)c1 | inactive: 0.998 | inactive: 0.991 |
| COC1=C[C@@H]2[C@@H]3Cc4ccc(OC)c(O)c4[C@]2(CCN3C)CC1=O [Sinomenine hydrochloride] | inactive: 0.964 | inactive: 0.878 |
| C/C(=C\c1csc(C)n1)[C@@H]1C[C@@H]2O[C@@H]2CCC[C@H](C)[C@H](O)[C@@H](C)C(=O)C(C)(C)[C@@H](O)CC(=O)O1 [Epothilone A] | active: 0.693 | active: 0.759 |
| CC(O)(CS(=O)(=O)c1ccc(F)cc1)C(=O)Nc1ccc(C#N)c(C(F)(F)F)c1 (centres undefined) [Bicalutamide] | inactive: 1.04 | inactive: 1.09 |
| CCN1CCN(C(=O)Cc2ccc(Nc3ncc(F)c(Nc4ccc(C(=O)Nc5ccccc5Cl)cc4)n3)cc2)CC1 [Aurora A Inhibitor I] | inactive: 0.949 | inactive: 0.943 |
| O=C([O-])C(Cl)Cl.[Na+] [Sodium dichloroacetate (DCA)] | inactive: 1.03 | inactive: 0.991 |
| CC(C)(C)c1cc(C=C(C#N)C#N)cc(C(C)(C)C)c1O [Tyrphostin 9] | inactive: 1.03 | inactive: 1.04 |
